Experimental data reported in the antibiotic and cytotoxicity screens of Wong et al. (2023).
This is one part of the list.

How the values were obtained:
HSkMC = human skeletal muscle cells; assay: cytotoxicity call (relative viability < 0.9); conditions: 10 µM
HepG2 = assay: cytotoxicity call (relative viability < 0.9); conditions: 10 µM
S. aureus RN4220 = assay: growth inhibition call (relative growth <= 0.2); conditions: 50 µM

| SMILES | cytotoxicity call (HSkMC) | cytotoxicity call (HepG2) | growth inhibition call (S. aureus RN4220) |
| --- | --- | --- | --- |
| O=c1nc[nH]c2c1ncn2[C@@H]1C[C@@H](O)[C@H](CO)O1 | inactive | inactive | inactive |
| Cc1noc(C)c1S(=O)(=O)Nc1ccc2c(c1)CC(=O)N([C@H](C)CO)C[C@@H](C)[C@H](CN(C)Cc1ccc(C(=O)O)cc1)O2 | inactive | inactive | inactive |
| O=C(C[C@@H]1C[C@H]2c3cc(NC(=O)Cc4ccncc4)ccc3O[C@H]2[C@@H](CO)O1)NCc1ccc2c(c1)OCO2 | inactive | inactive | inactive |
| Cc1noc(C)c1NC(=O)N(C)C[C@@H]1OCCCC[C@@H](C)Oc2ccc(NC(=O)C3CCCCC3)cc2C(=O)N([C@H](C)CO)C[C@H]1C | inactive | inactive | inactive |
| Nc1cc(=O)[nH]c(=O)n1-c1ccc(Cl)cc1 | inactive | inactive | inactive |
| CCNC(=O)C[C@H]1CC[C@@H]2[C@H](COC[C@H](O)CN2S(=O)(=O)c2ccc(Oc3ccccc3)cc2)O1 | inactive | inactive | inactive |
| Cc1ccc(S(=O)(=O)Nc2ccc3c(c2)C(=O)N([C@@H](C)CO)C[C@@H](C)[C@@H](CN(C)C(=O)c2ccccc2)OCCCC[C@@H](C)O3)cc1 | inactive | inactive | inactive |
| C[C@@H]1CN([C@@H](C)CO)C(=O)c2cccc(NS(=O)(=O)c3ccc(F)cc3)c2O[C@H]1CN(C)S(=O)(=O)c1cn(C)cn1 | inactive | inactive | inactive |
| COc1ccc(S(=O)(=O)N(C)C[C@H]2OCCCC[C@@H](C)Oc3ccc(NS(C)(=O)=O)cc3C(=O)N([C@@H](C)CO)C[C@H]2C)cc1 | inactive | inactive | inactive |
| C[C@H](CO)N1C[C@H](C)[C@H](CN(C)C(=O)CN(C)C)Oc2ncc(C#CC3(O)CCCC3)cc2C1=O | inactive | inactive | inactive |
| C[C@@H]1CN([C@H](C)CO)C(=O)c2cc(N(C)C)ccc2O[C@@H](C)CCCCO[C@H]1CN(C)C(=O)Nc1cccc2ccccc12 | inactive | inactive | inactive |
| COc1ccc(-c2cc(=O)c3c(O)cc(O[C@@H]4O[C@@H](CO[C@@H]5O[C@H](C)[C@@H](O)[C@H](O)[C@H]5O)[C@H](O)[C@@H](O)[C@H]4O)cc3o2)cc1O | inactive | inactive | inactive |
| C[C@@H]1CCCCO[C@H](CN(C)Cc2ccc3c(c2)OCO3)[C@@H](C)CN([C@@H](C)CO)C(=O)c2cc(NC(=O)Nc3ccc(F)cc3)ccc2O1 | inactive | active | inactive |
| C[C@@H]1CCCCO[C@H](CN(C)S(=O)(=O)c2ccccc2)[C@@H](C)CN([C@H](C)CO)C(=O)c2cc(NC(=O)NC3CCCCC3)ccc2O1 | inactive | inactive | inactive |
| NCCN1CCC(c2cccs2)CC1 | inactive | inactive | inactive |
| Cc1cc2cc(CN)ccc2[nH]1 | inactive | inactive | inactive |
| CC(C)NC(=O)Nc1ccc2c(c1)CC(=O)N([C@H](C)CO)C[C@H](C)[C@@H](CN(C)Cc1ccc(C(=O)O)cc1)O2 | inactive | inactive | inactive |
| N=c1c(C(N)=S)cnc2ccccn12 | inactive | inactive | inactive |
| Cc1ccc(S[C@]2(C(=O)NCc3ccccc3)CC(=O)N(C3Cc4ccccc4C3)[C@@H]2c2ccc(CO)cc2I)cc1 | inactive | inactive | inactive |

| SMILES | cytotoxicity call (HSkMC) | cytotoxicity call (HepG2) | growth inhibition call (S. aureus RN4220) |
| --- | --- | --- | --- |
| C[C@@H]1CCCCO[C@H](CN(C)C(=O)Nc2ccc(C(F)(F)F)cc2)[C@H](C)CN([C@@H](C)CO)C(=O)c2cc(NC(=O)c3ccccc3)ccc2O1 | inactive | inactive | inactive |
| Cl.Nc1c2c(nc3ccccc13)CCCC2 | inactive | active | inactive |
| C[C@@H]1CN([C@@H](C)CO)C(=O)c2cc(NC(=O)CCCN(C)C)ccc2O[C@@H]1CN(C)Cc1ccncc1 | inactive | inactive | inactive |
| COc1ccc(NC(=O)Nc2ccc3c(c2)C(=O)N([C@H](C)CO)C[C@H](C)[C@@H](CN(C)S(=O)(=O)c2ccc(Cl)cc2)OCCCC[C@@H](C)O3)cc1 | inactive | inactive | inactive |
| CCC(=O)Nc1nc(C(=O)NC)cs1 | inactive | inactive | inactive |
| O=C1CCc2c(ccc3ccccc23)O1 | inactive | inactive | inactive |
| Cc1ccc2[nH]c3c(c2c1)CCC[C@H]3Nc1ccc(Cl)cc1 | inactive | inactive | inactive |
| C[C@@H]1CCCCO[C@H](CN(C)S(C)(=O)=O)[C@H](C)CN([C@@H](C)CO)C(=O)c2cc(NC(=O)c3ccncc3)ccc2O1 | inactive | inactive | inactive |
| COC(=O)CCCCCCC(=O)Nc1ccc([C@H]2O[C@@H](CSc3ccccn3)C[C@H](c3ccccc3)O2)cc1 | inactive | inactive | inactive |
| Nc1ccc(S(=O)(=O)Nc2ccccn2)cc1 | inactive | inactive | inactive |
| C[C@@H]1ON(c2cccc(C(=O)OC(C)(C)C)c2)[C@H](c2ccc(Br)cc2)[C@H]1C(=O)N1C(=O)OC[C@H]1Cc1ccccc1 | inactive | inactive | inactive |
| Cc1ccc(S(=O)(=O)Nc2cccc3c2O[C@@H](CN(C)C(=O)NC(C)C)[C@H](C)CN([C@@H](C)CO)C3=O)cc1 | inactive | inactive | inactive |
| COc1ccc(CN(C)C[C@@H]2OCCCC[C@@H](C)Oc3ccc(NC(=O)Nc4ccc(F)cc4)cc3C(=O)N([C@H](C)CO)C[C@@H]2C)cc1 | inactive | inactive | inactive |
| CC1(N)CCN(c2cnc(-c3cccc(Cl)c3Cl)c(N)n2)CC1 | inactive | inactive | inactive |
| CCOC(=O)C1=CC(OC(CC)CC)C(NC(C)=O)C(N)C1.O=P(O)(O)O (stereo unspecified) | inactive | inactive | inactive |
| COc1ccc(S(=O)(=O)N(C)C[C@@H]2OCCCC[C@H](C)Oc3ccc(NS(C)(=O)=O)cc3C(=O)N([C@H](C)CO)C[C@@H]2C)cc1 | inactive | inactive | inactive |
| Cc1ccc(S[C@]2(C(=O)NC3CC3)CC(=O)N(Cc3cc(C(F)(F)F)cc(C(F)(F)F)c3)[C@@H]2c2ccc(CO)cc2I)cc1 | inactive | inactive | inactive |
| C[C@H](CO)N1C[C@H](C)[C@H](CN(C)C(=O)Nc2cccc3ccccc23)Oc2ccc(NC(=O)C3CCCCC3)cc2C1=O | inactive | inactive | inactive |
| Cc1noc(C)c1NC(=O)Nc1ccc2c(c1)C(=O)N([C@@H](C)CO)C[C@@H](C)[C@@H](CN(C)Cc1ccc(C(=O)Nc3ccccc3N)cc1)O2 | inactive | inactive | inactive |

| SMILES | cytotoxicity call (HSkMC) | cytotoxicity call (HepG2) | growth inhibition call (S. aureus RN4220) |
| --- | --- | --- | --- |
| COc1ccc(NC(=O)Nc2ccc3c(c2)C(=O)N([C@H](C)CO)C[C@@H](C)[C@@H](CN(C)Cc2ccncc2)OCCCC[C@H](C)O3)cc1 | inactive | inactive | inactive |
| CS(=O)(=O)Nc1cccc(C2=NN(c3nc(-c4ccccc4)c4cc(Cl)ccc4n3)[C@H](c3ccco3)C2)c1 | inactive | inactive | inactive |
| C[C@@H]1CCCCO[C@H](CN(C)C(=O)Nc2ccc(F)cc2)[C@H](C)CN([C@@H](C)CO)C(=O)c2cc(NC(=O)CCCN(C)C)ccc2O1 | inactive | inactive | inactive |
| COc1ccc(NC(=O)Nc2ccc3c(c2)C(=O)N([C@H](C)CO)C[C@H](C)[C@@H](CN(C)Cc2ccc(Cl)c(Cl)c2)OCCCC[C@H](C)O3)cc1 | inactive | inactive | inactive |
| Cn1cnc(S(=O)(=O)N2C[C@@H](O)COC[C@H]3O[C@@H](CC(=O)NC4CCCC4)CC[C@@H]32)c1 | inactive | inactive | inactive |
| NC(=O)Cn1cnc2sc3c(c2c1=O)CCC3 | inactive | inactive | inactive |
| CC(C)(C)[S@](=O)N1Cc2cc(C(=O)NCc3ccccc3F)nc(-c3cccc(-c4ccncc4)c3)c2[C@@H]1CCO | inactive | inactive | inactive |
| O=C(C[C@@H]1C=C[C@H](NC(=O)C2CC2)[C@H](CO)O1)NCCCN1CCOCC1 | inactive | inactive | inactive |
| Cc1noc(C)c1NC(=O)Nc1ccc2c(c1)CC(=O)N([C@@H](C)CO)C[C@@H](C)[C@H](CN(C)CC1CC1)O2 | inactive | inactive | inactive |
| COc1ccc(NC(=O)Nc2cccc3c2O[C@H](CN(C)C(=O)Nc2ccc(C(F)(F)F)cc2)[C@H](C)CN([C@@H](C)CO)C3=O)cc1 | inactive | inactive | inactive |
| C[C@@H]1CN([C@@H](C)CO)C(=O)c2cc(NS(=O)(=O)c3ccccc3)ccc2O[C@@H](C)CCCCO[C@H]1CN(C)S(=O)(=O)c1cn(C)cn1 | inactive | inactive | inactive |
| Cc1cc(C(=O)Nc2cccc3c2O[C@@H](CN(C)C(=O)NC2CCCCC2)[C@@H](C)CN([C@H](C)CO)C3=O)n(C)n1 | inactive | inactive | inactive |
| COCCOC(=O)N1C(=O)[C@@]2(c3cc(C#CCCO)ccc31)[C@H](C(=O)Nc1nc3ccccc3s1)[C@H]1C(=O)O[C@H](c3ccccc3)[C@H](c3ccccc3)N1[C@@H]2c1ccc(O)cc1 | inactive | inactive | inactive |
| C[C@@H]1CN([C@H](C)CO)S(=O)(=O)c2ccc(C#Cc3ccccc3F)cc2O[C@@H]1CN(C)C(=O)Cc1cccnc1 | inactive | inactive | inactive |
| Cc1nc(=O)[nH]c(C(=O)O)c1C | inactive | inactive | inactive |
| COc1ccc(S(=O)(=O)N(C)C[C@@H]2OCCCC[C@@H](C)Oc3ccc(NS(=O)(=O)c4cn(C)cn4)cc3C(=O)N([C@@H](C)CO)C[C@H]2C)cc1 | inactive | inactive | inactive |
| Cc1ccc(S(=O)(=O)Nc2ccc3c(c2)C(=O)N([C@H](C)CO)C[C@H](C)[C@H](CN(C)C(=O)Nc2ccc(C(F)(F)F)cc2)OCCCC[C@H](C)O3)cc1 | inactive | active | inactive |
| Cc1cc(O)cc(=O)o1 | inactive | inactive | inactive |
| CCNC(=O)C[C@H]1CC[C@H](NC(=O)C2CCOCC2)[C@H](CO)O1 | inactive | inactive | inactive |
